# About 240 (0.17%) of roughly 140,000 compounds were called active. Inconclusive results, whose numbers are uncertain, are shown with a selection of clear calls. The call rests on the fitted dose curve; in most records, active means well fitted inhibition curve with a large enough effect; inconclusive means small, poorly fitted or top-dose-only effect; inactive means no such curve, though single readings can be large or run the other way. A potency beside an inconclusive call is a rough fit, not a confirmed value.
# Assay: Primary qHTS assay for inhibitors of alpha-synuclein gene (SNCA) expression; further: nearly all actives have a fitted effect of over 45% in size
# Settings: HEK-293 SNCA-luciferase knock-in, luminescence, 24 h; series mostly up to 57.2 µM
# Potency means the concentration at half of the fitted maximal effect; tags describe the fitted curve by direction and shape.
row,Structure (SMILES),Potency
1,Nc1cccc(-c2ccc(N3CCOCC3)nn2)c1,"inconclusive: 11.2 µM [inhibitor, partial curve, poor fit]"
2,NC(=O)OCC(COC(N)=O)c1ccccc1,"inconclusive: 15.2 µM [inhibitor, single point]"
3,O=C(C[C@@H]1CCNC[C@@H]1Cc1cc(CC2CCCCC2)on1)NCc1ccccc1,"inconclusive: 14.1 µM [inhibitor, partial curve]"
4,COc1ccc(Nc2ccnc(N3CCC(NC(=O)c4ccccc4C)CC3)n2)cc1,inactive
5,Cc1ccc(CNC(=O)Cn2c(N(C)Cc3ccccc3)nc(C)cc2=O)cc1,"inconclusive: 3.16 µM [inhibitor, full curve, poor fit]"
6,Cc1ccc(NC(=O)CCC2CCN(C(=O)c3ccccc3F)CC2)cc1,"inconclusive: 28.2 µM [inhibitor, single point]"
7,O=C(c1cc(F)ccc1F)N1CCC2(CC1)CC(N(Cc1ccccc1)C1CC1)CCO2 (stereo not given),"inconclusive: 25.1 µM [inhibitor, single point]"
8,COCCN1CC(CO)C2(CCN(C(=O)CN3CCOCC3)CC2)C1 (stereo not given),"inconclusive: 39.8 µM [inhibitor, partial curve, poor fit]"
9,O=C(c1ccc(Cl)cc1)N1CCOCC2(CN(Cc3cc(F)cc(F)c3)C2)C1,"inconclusive: 2.51 µM [inhibitor, partial curve, poor fit]"
10,COc1ccc(OCC2(C)COc3ccc(C(=O)Nc4ccn(C)n4)cc3N2)cc1 (stereo not given),"inconclusive: 15.8 µM [inhibitor, partial curve, poor fit]"
11,CCOc1ccccc1C(=O)NCc1nnc2ccc(-c3ccc(C)cc3)nn12,inactive
12,CCc1ccccc1OCCN1CCN(c2ccc(C#N)cc2)C(=O)C1,inactive
13,CCc1ccc(NC(=O)CN2C(=O)C(c3ccccc3)=NC23CCCCCC3)cc1,"inconclusive: 39.8 µM [inhibitor, single point]"
14,COCCN1CCCCCC(O)c2cc(C(=O)N(C)CCCc3c(C)nn(C)c3C)ccc21 (stereo not given),inactive
15,N#Cc1ccc(CN2CCn3c(nn(-c4ccc(F)cc4F)c3=O)C2)cc1,inactive
16,Cc1ccc(C(CC(=O)Nc2cc(C)cc(C)c2)N2Cc3ccccc3C2=O)cc1 (stereo not given),"inconclusive: 39.8 µM [inhibitor, single point]"
17,O=C(c1ccc(N2CC[C@H](O)C2)nc1)N1CCC(N2CCOCC2)CC1,inactive
18,OCc1cc(CC2(NCC3CC3)COC2)no1,"inconclusive: 31.6 µM [inhibitor, partial curve, poor fit]"
19,COCCN1CC(CO)C2(CCN(Cc3sccc3C)CC2)C1 (stereo not given),"inconclusive: 31.6 µM [inhibitor, single point]"
20,COc1cccc(CNC(=O)C(NS(=O)(=O)c2ccc3nc(C)sc3c2)C(C)C)c1 (stereo not given),"inconclusive: 2.51 µM [inhibitor, full curve]"
21,Cc1ccc(NC(=O)Cn2ccn3nc4c(c3c2=O)CCCC4)cc1Cl,inactive
22,COCCN1CC2(CCCN(C(=O)CCc3cccc(F)c3)C2)CCC1=O (stereo not given),inactive

row,Structure (SMILES),Potency
1,Cc1cc2ccccc2n1CCC(=O)N1CC[C@@](C)(O)[C@@H](O)C1,inactive
2,O=c1cc(N2CCOCC2)oc2c(Nc3ccccn3)nccc12,inactive
3,O=C(CN1C(=O)NC2(CCCCC2)C1=O)Nc1ccc(C(F)(F)F)cc1,inactive
4,O=C(Cn1c(=O)nc(-c2ccccc2)c2ccccc21)NCCCc1ccccc1,"inconclusive: 3.16 µM [inhibitor, full curve, poor fit]"
5,CC(C)c1noc(-c2ccn3c(CNC(=O)c4cccc(N(C)C)c4)nnc3c2)n1,inactive
6,CCn1c(CN2CCOCC2)nc2cc(NC(=O)c3cc(OC)c(OC)c(OC)c3)ccc21,inactive
7,COc1cccc(CNC(=O)C2CCCN2Cc2ccc(-c3cccc(OC)c3)cc2)c1 (stereo not given),inactive
8,CSc1nn(Cc2ccc(Br)cc2)c(N(C(C)=O)C(C)=O)c1S(=O)(=O)c1ccccc1,"inconclusive: 39.8 µM [inhibitor, single point]"
9,Cc1nnc2n1CCC(NC(=O)NCCc1ccccc1)CC2 (stereo not given),"inconclusive: 3.98 µM [inhibitor, single point]"
10,O=C(NCCCN1CCCCC1)c1ccc2c(c1)N(S(=O)(=O)c1ccccc1)CC2,"inconclusive: 39.8 µM [inhibitor, single point]"
11,Cc1ccc(C(=O)N2CCN(C(=O)c3cccc(-c4ccccn4)c3)CC2)cc1,"inconclusive: 15.8 µM [inhibitor, partial curve, poor fit]"
12,COc1ccc2[nH]cc(CN3CCC([C@H]4[C@@H](OC)C(=O)N4C(C)C)CC3)c2c1,inactive
13,COC[C@@H]1CN(C(=O)c2cc(OC)cc(OC)c2)C[C@H]1c1ccncc1,"inconclusive: 1.58 µM [inhibitor, full curve, poor fit]"
14,COC(=O)Nc1ccc(-c2nc(N3CCOCC3)c3cnn(C4CCN(C(=O)OC)CC4)c3n2)cc1,"inconclusive: 3.83 µM [inhibitor, full curve, poor fit]"
15,Cn1cc(-c2ccccc2Oc2ccccc2)c2nc(CN3CCOCC3)cn2c1=O,inactive
16,Cc1ccc(-n2ncc(C(=O)N3CCN(Cc4ccccc4)CC3)c2C2CCN(C(=O)OC(C)(C)C)CC2)c(C)c1,"inconclusive: 14.1 µM [inhibitor, single point]"
17,COCCNC(=O)[C@@H]1Cc2cn(Cc3cccnc3)c3cccc(c23)[C@H](CC(C)C)N1,"inconclusive: 39.8 µM [inhibitor, single point]"
18,CC(C)C[C@@H]1N[C@H](C(=O)NCc2ccccn2)Cc2cn(Cc3ccncc3)c3cccc1c23,inactive
19,Cc1cccc(N2C(=O)CCSC23C(=O)N(Cc2ccc(F)cc2)c2ccccc23)c1 (stereo not given),"inconclusive: 39.8 µM [inhibitor, single point]"
20,Cc1ccc(-c2c(C(=O)NCCc3ccc(Cl)cc3)oc(=O)c3ccccc23)cc1,"inconclusive: 7.08 µM [inhibitor, single point]"
21,COc1ccc(C(=O)N2CCCN(c3cc(-c4ccccc4)[nH]n3)CC2)cc1F,"inconclusive: 39.8 µM [inhibitor, single point]"
22,COc1ccc(C(=O)Nc2ccc(-c3noc([C@@H]4CCCN4Cc4ccccc4C)n3)cn2)cc1,"inconclusive: 10 µM [inhibitor, full curve, poor fit]"

row,Structure (SMILES),Potency
1,CC1(C(=O)Nc2ccccc2)CCc2cnc(N3CCOCC3)nc21 (stereo not given),inactive
2,CC(C)(C)C(=O)N1CCC(C(=O)N2CCC3(CC2)CC(=O)Nc2ccccc2O3)CC1,"inconclusive: 39.8 µM [inhibitor, single point]"
3,O=C(C1CCCN1C(=O)c1cccc(Cl)c1)N1CCC(c2nc3ccncc3[nH]2)CC1 (stereo not given),"inconclusive: 11.2 µM [inhibitor, partial curve, poor fit]"
4,COc1ccc(-c2ccccc2NC(=O)C2CCCN(Cc3c(O)cccc3OC)C2)cc1 (stereo not given),"inconclusive: 25.1 µM [inhibitor, single point]"
5,CCC1CN(C(=O)N2CCC(C(=O)NCc3cccs3)CC2)c2cc(C)ccc2O1 (stereo not given),"inconclusive: 35.5 µM [inhibitor, single point]"
6,COc1ccc(C(=O)N2C[C@@H](F)[C@@H](OCc3nc4ccccc4[nH]3)C2)cc1,inactive
7,COc1ccc(-c2cc(N3CCCC(NC(=O)c4ccc(F)c(Cl)c4)C3)n[nH]2)cc1 (stereo not given),inactive
8,CSCC(=O)N1CCC(C2CCNC2)CC1 (stereo not given),"inconclusive: 39.8 µM [inhibitor, single point]"
9,COc1ccc(-c2oc3c(CC=C(C)C)c(OC4O[C@H](CO)[C@@H](O)[C@H](O)[C@@H]4O)cc(O)c3c(=O)c2OC2O[C@@H](C)[C@H](O)[C@@H](O)[C@@H]2O)cc1 (stereo not given in full),"inconclusive: 30.4 µM [inhibitor, single point]"
10,Cc1ccc(Cl)cc1N1CCN(C(=O)c2ccc(C)c(-n3c(C)nc4cccnc43)c2)CC1,"inconclusive: 10 µM [inhibitor, partial curve, poor fit]"
11,CC1=C[C@@H](CNC(C)C)[C@H](C(C)C)C[C@H]1Cc1nnc(-c2ccc([N+](=O)[O-])cc2)o1,"inconclusive: 56.2 µM [inhibitor, single point]"
12,CCn1ncc(NC(=O)Cn2ncc3cc(-c4ccc(N(C)C)cc4)ccc32)n1,inactive
13,O=C(COc1ccccc1)NC1CCN(c2cc(-c3ccccc3)[nH]n2)CC1,inactive
14,CCCCNc1cc(C(=O)O)cc(S(N)(=O)=O)c1Oc1ccccc1,"inconclusive: 8.91 µM [inhibitor, single point]"
15,CCn1nc(C)c(CCN(C)C(=O)C2CCN(c3cnn(Cc4ccccc4)c(=O)c3)C2)c1C (stereo not given),inactive
16,COCCNC(=O)C1CCN(c2nccc(Nc3ccccc3OC)n2)CC1,inactive
17,O=C(NC1CCCN(c2ccnc3ccnn23)C1)c1ccncc1 (stereo not given),"inconclusive: 7.08 µM [inhibitor, full curve, poor fit]"
18,COc1ccc(-n2c(-c3ccco3)nc3c(cnn3-c3ccc(C)cc3)c2=O)cc1,"inconclusive: 3.16 µM [inhibitor, single point]"
19,CC1(CNc2ccccc2)COc2ccc(C(=O)NC3CCOCC3)cc2N1 (stereo not given),"inconclusive: 44.7 µM [inhibitor, single point]"
20,CCCCOCc1cc(CN2CCN(c3cccc(Cl)c3)CC2)c(O)c2ncccc12,"inconclusive: 8.91 µM [inhibitor, partial curve, poor fit]"
21,CSc1cccc(NC(=O)N[C@H]2CCN(C(=O)c3cccn3C)[C@@H]2C(=O)N[C@@H](Cc2cccs2)C(N)=O)c1,inactive

# Reference: PubChem BioAssay AID1671194 (National Center for Advancing Translational Sciences (NCATS), 2021)
